The structures appear in SMILES notation. Where “and” joins values, the source holds several entries; their conditions need not be identical. Equal entries are not always repeated. Structures can show the parent of a compound that is named as a salt. ± gives the standard deviation of the averaged measurements. In all, about 2,600 compounds were measured (“total cell number (DAPI+ nuclei) relative to DMSO vehicle control”: median about -1.4, lowest 2% from about -23 on). Some of the results follow.

For this test, the system named is jimpy (Plp1 jimpy) mouse iPSC-derived oligodendrocyte progenitor cells. The test can be described thus: total cell number (DAPI+ nuclei) relative to DMSO vehicle control (SDs above negative control mean); higher = more surviving cells. The settings on record: 10 µM; 3 days.
Regarding `CCCNCC(O)COc1ccccc1C(=O)CCc1ccccc1` (stereo not given) [Propafenone hydrochloride], the total cell number was -2.01. In the case of `CCCNCC(O)COc1ccccc1C(=O)CCc1ccccc1` (stereo not given) [Propafenone HCl], the total cell number was -0.28. The figure for `COc1cc([C@@H]2c3cc4c(cc3[C@@H](O[C@@H]3O[C@@H]5CO[C@@H](C)O[C@H]5[C@H](O)[C@H]3O)[C@H]3COC(=O)[C@H]23)OCO4)cc(OC)c1O` [Etoposide] is -15.2 ± 8.5. Take `COc1cc(/C=C(\C#N)C(=O)Nc2nnc(C(F)(F)F)s2)ccc1OCc1ccc(C(F)(F)F)cc1C(F)(F)F`: the total cell number was -0.657. The value for `O=[N+]([O-])c1cccc2cn[nH]c12` [7-Nitroindazole] was -1.22. On to `COc1ccccc1OCC(O)CN1CCN(CC(=O)Nc2c(C)cccc2C)CC1` (stereo not given) [Ranolazine dihydrochloride], for which the total cell number was -1.32. In the case of `COc1ccccc1OCC(O)CN1CCN(CC(=O)Nc2c(C)cccc2C)CC1` (stereo not given) [Ranolazine], the total cell number amounted to 0.205. The figure for `COc1ccccc1OCC(O)CN1CCN(CC(=O)Nc2c(C)cccc2C)CC1` (stereo not given) [Ranolazine 2HCl] is 0.63; for `C[C@H]1C[C@@H]2[C@H]([C@@H](O)C[C@@]3(C)[C@H]2CC[C@]3(O)C(=O)CO)[C@@]2(C)C=CC(=O)C=C12` [Methylprednisolone] it is 5.96; for `COc1cc2c(Oc3ccc4[nH]c(C)cc4c3F)ncnc2cc1OCCCN1CCCC1` [Cediranib (AZD2171)] it is -26.9.

Consider `CC(=O)O[C@]1(C(C)=O)CC[C@H]2[C@@H]3C[C@H](C)C4=CC(=O)CC[C@]4(C)[C@H]3CC[C@@]21C` [Medroxyprogesterone acetate], for which the total cell number stood at 6.72. `O=C(O)c1cc(-c2ccccc2)nc2ccccc12` [Cinchophen] returned a total cell number of 1.06. Compound `Nc1nc2c(nc(Br)n2C2OC3COP(=O)(O)O[C@@H]3C2O)c(=O)[nH]1` (stereo not given in full) [8-Bromo-cGMP sodium] displayed a total cell number of -3.71. With `Nc1nc2n[nH]nc2c(=O)[nH]1` [Azaguanine-8], the total cell number was -0.157.

Take `COc1cc2c(cc1-c1c(C)noc1C)ncc1[nH]c(=O)n([C@H](C)c3ccccn3)c12`: the total cell number is -7.07 and -7.8. The value for `CN(C)c1nc(N(C)C)nc(N(C)C)n1` [Altretamine] was -0.0239 ± 0.24; that for `N[C@H](C(=O)O)[C@H](O)c1ccc(O)c(O)c1` was -1.4; that for `CCOC(=O)[C@H](CCc1ccccc1)N[C@H]1CS[C@H](c2cccs2)CN(CC(=O)O)C1=O` [Temocapril HCl] was 1.77. In turn, `CCCCC(F)(F)[C@@]1(O)CC[C@H]2[C@@H](CC(=O)[C@@H]2CCCCCCC(=O)O)O1` [Lubiprostone] had a total cell number of 7.06. `COc1ccc(F)c(F)c1C(=O)c1cnc(NC2CCN(S(C)(=O)=O)CC2)nc1N` showed a total cell number of -11.6.

`O=S(=O)(O)c1cc(O)ccc1O` [Ethamsylate] had a total cell number of -1.12. The figure for `CC(C)C[C@H](NP(=O)(O)O[C@H]1O[C@H](C)[C@@H](O)[C@H](O)[C@@H]1O)C(=O)N[C@@H](Cc1c[nH]c2ccccc12)C(=O)O` [Phosphoramidon disodium] is -1.28; for `CCC(=O)O[C@]1(C(=O)CCl)[C@@H](C)C[C@H]2[C@@H]3CCC4=CC(=O)C=C[C@]4(C)[C@@]3(F)[C@@H](O)C[C@@]21C` [Clobetasol propionate] it is 6.81; for `O=C1C[C@@H](c2ccc(O)cc2)Oc2cc(O)cc(O)c21` [Naringenin] it is -0.134. The value for `CC(=O)Nc1nc(C)c(-c2ccc(Cl)c(S(=O)(=O)NCCO)c2)s1` was -15.8; that for `CC(/C=C/c1cccc(Oc2ccc(F)cc2)c1)N(O)C(N)=O` (stereo not given) was -3.01; that for `O=c1c(O)c(-c2ccc(O)cc2O)oc2cc(O)cc(O)c12` [Morin Hydrate] was 0.628.

In turn, `O=c1c(O)c(-c2ccc(O)cc2O)oc2cc(O)cc(O)c12` [Morin] registered a total cell number of -2.03. Consider `COc1ccc(C2CNC(=O)C2)cc1OC1CCCC1` (stereo not given) [Rolipram], for which the total cell number is -1.19 ± 0.055. The value for `OC[C@H]1O[C@@H](Oc2cc(O)cc(/C=C/c3ccc(O)cc3)c2)[C@H](O)[C@@H](O)[C@@H]1O` [Polydatin] was -3.83; that for `CCCCCCCCCCCCCCCC(=O)O[C@@H]1[C@@H](O)[C@@H](O)[C@@H]([C@H](NC(=O)[C@@H]2C[C@@H](CCC)CN2C)[C@H](C)Cl)O[C@@H]1SC` [Clindamycin palmitate HCl] was -2.86.

With `O=C(O)C1=CCCNC1` [Guvacine hydrochloride], the total cell number was -0.544. The figure for `CC(=O)Nc1ncc([N+](=O)[O-])s1` [Nithiamide] is -1.51.

`O=C(NOCC1CC1)c1cc(Br)c(F)c(F)c1Nc1ccc(I)cc1Cl`: the total cell number was -4.21. `Nc1ncnc2c1nc(Sc1ccc(Cl)cc1)n2C1OC2COP(=O)(O)O[C@@H]2[C@@H]1O` (stereo not given in full) [8-(4-Chlorophenylthio)-cAMP sodium] registered a total cell number of -2.6. In turn, `CCC(=O)c1c(O)cc(O)cc1O` [Flopropione] yielded a total cell number of 3.54. With `C=CC(=O)Nc1ccc2ncnc(Nc3cccc(Br)c3)c2c1`, the total cell number was -13.1. Regarding `CC(C)(C)[C@]1(O)CCN2C[C@H]3c4ccccc4CCc4cccc(c43)[C@@H]2C1` [(+)-Butaclamol hydrochloride], the total cell number is -2.89. Compound `CC(C)(C)[C@]1(O)CCN2C[C@H]3c4ccccc4CCc4cccc(c43)[C@@H]2C1` (racemic) [(±)-Butaclamol hydrochloride] registered a total cell number of -0.0241.

Compound `Nc1nc2[nH]c(=O)cnc2c(=O)[nH]1` [Isoxanthopterin] showed a total cell number of -0.472. `CO/N=C(\C(=O)N[C@@H]1C(=O)N2C(C(=O)O)=C(Cn3ccc(=N)n3CCO)CS[C@H]12)c1csc(N)n1` [Cefoselis Sulfate] came in with a total cell number of 0.253.

Consider `CC1Cc2ccccc2N1NC(=O)c1ccc(Cl)c(S(N)(=O)=O)c1` (stereo not given) [Indapamide], for which the total cell number stood at 1.96. Consider `CCOCC(O)COc1ccc(NC(=O)CC[S+](C)C)cc1` (stereo not given) [Suplatast Tosylate], for which the total cell number is -1.08. The figure for `Nc1ccc(S(=O)(=O)Nc2ccnn2-c2ccccc2)cc1` [Sulfaphenazole] is -2.31. The figure for `CN1CCN(CCOc2cc(OC3CCOCC3)c3c(Nc4c(Cl)ccc5c4OCO5)ncnc3c2)CC1` [Saracatinib (AZD0530)] is -22.8. In the case of `O=C(/C=C/c1ccc(CN(CCO)CCc2c[nH]c3ccccc23)cc1)NO` [LAQ824 (Dacinostat)], the total cell number is -17.2. The compound `CC(C)(C)c1ccc(-c2nc3ccccc3[nH]2)cc1` returned a total cell number of 3.6. The figure for `C=CCN1CCc2c(cc(O)c(O)c2Br)[C@@H](c2ccccc2)C1` [R(+)-6-Bromo-APB hydrobromide] is -7.92; for `Cc1cccc(C#Cc2ccccc2)n1` [6-Methyl-2-(phenylethynyl)pyridine hydrochloride] it is -2.25.

Compound `c1ccc(C(NCc2cccnc2)(c2ccccc2)c2ccccc2)cc1` showed a total cell number of -1.31.

Compound `N[C@H](C(=O)O)c1cc(O)cc(O)c1` [(S)-3,5-Dihydroxyphenylglycine] had a total cell number of 2.98. In turn, `O=c1cc[nH]c(=S)[nH]1` [2-Thiouracil] had a total cell number of -0.0444. The value for `Cc1cc(C)c(/C=C2\C(=O)Nc3ccccc32)[nH]1` [Semaxanib (SU5416)] was -1.49. Turning to `Cc1cc(C)c(/C=C2\C(=O)Nc3ccccc32)[nH]1`, the total cell number was -3.96.

For `O=C(NOC[C@H](O)CO)c1ccc(F)c(F)c1Nc1ccc(I)cc1F`, the total cell number is -6.84 and -15.1. `CC(C)c1cc(-c2ccc(F)c3ccccc23)nc(N)n1` came in with a total cell number of 0.518.

The compound `O=C1CC2(CCCC2)CC(=O)N1CCCCN1CCN(c2ncccn2)CC1` [Buspirone hydrochloride] had a total cell number of -1.83.

In turn, `O=C1CC2(CCCC2)CC(=O)N1CCCCN1CCN(c2ncccn2)CC1` [Buspirone HCl] yielded a total cell number of -0.992. For `CC[C@H]1OC(=O)[C@H](C)[C@@H](O[C@H]2C[C@@](C)(OC)[C@@H](O)[C@H](C)O2)[C@H](C)[C@@H](O[C@@H]2O[C@H](C)C[C@H](N(C)C)[C@H]2O)[C@](C)(O)C[C@@H](C)[C@@H]2N[C@@H](COCCOC)O[C@H]([C@H]2C)[C@]1(C)O` [Dirithromycin], the total cell number is -1.67. The figure for `COc1ccc(S(=O)(=O)N(C(C)=O)c2ccccc2/C=C/c2cc[n+]([O-])cc2)cc1` is -4.22. Regarding `CCn1ccnc1CC1COc2ccccc2O1` (stereo not given) [Imiloxan hydrochloride], the total cell number is -1.4. The figure for `COc1cc2nccc(Oc3ccc(NC(=O)C4(C(=O)Nc5ccc(F)cc5)CC4)cc3)c2cc1OC` is -20; for `CN1CCN(c2nc3cc(C(F)(F)F)ccc3n3cccc23)CC1` it is -5.92. As for `O=C(O)/C=C/c1ccc(Cn2ccnc2)cc1` [Ozagrel HCl], the total cell number is -1.15. The figure for `O=C(O)/C=C/c1ccc(Cn2ccnc2)cc1` [Ozagrel] is -1.42; for `CCCc1nc(C)c2c(=O)nc(-c3cc(S(=O)(=O)N4CCN(CC)CC4)ccc3OCC)[nH]n12` [Vardenafil HCl Trihydrate] it is 1.13.

In turn, `CNC(=O)c1cc(COc2nnc(Nc3ccc(Cl)cc3)c3ccoc23)ccn1` [Telatinib] returned a total cell number of -3.45. `O=c1c(-c2ccc(O)cc2)coc2c([C@@H]3O[C@H](CO)[C@@H](O)[C@H](O)[C@H]3O)c(O)ccc12` [Puerarin] came in with a total cell number of -0.0751.

The compound `CCn1nc(C(=O)O)c(=O)c2cc3c(cc21)OCO3` [Cinoxacin] displayed a total cell number of -1.01. For `Cc1cc([C@@H](C)Nc2ccccc2C(=O)O)c2nc(N3CCOCC3)cc(=O)n2c1`, the total cell number was -11.1. The value for `COCCOC(=O)C1=C(C)NC(C)=C(C(=O)OC/C=C/c2ccccc2)C1c1cccc([N+](=O)[O-])c1` (stereo not given) [Cilnidipine] was 0.0887 ± 0.53. As to `CCOc1nc2cccc(C(=O)O)c2n1Cc1ccc(-c2ccccc2-c2noc(=O)[nH]2)cc1` [Azilsartan], the total cell number was 0.00459. The value for `O=C(c1cn(Cc2cncn2Cc2ccc(Br)cc2)cc1-c1cccc2ccccc12)N1CCOCC1` was -9.47. The value for `CCN1CCN(C(=O)N[C@@H](C(=O)N[C@@H]2C(=O)N3C(C(=O)O)=C(CSc4nnnn4C)CS[C@H]23)c2ccc(O)cc2)C(=O)C1=O` [Cefoperazone] was -12; that for `CC(C)(Cc1ccc2ccccc2c1)NC[C@@H](O)COc1cccc(Cl)c1C#N` was -11.

Values taken from the supplement of paper PMC6135742.
